# According to PMC4336329 (PLoS ONE, 2015):
# The campaign covered roughly 310,000 compounds. About 14,000 (4.5%) showed an effect of 50% or more. Effects have a minus sign here. Some of the results follow.
# Biological target: human ether-à-go-go-related gene (hERG) potassium channel (human, UniProt Q12809)
# Assay: primary screen, population patch clamp on CHO cells stably expressing hERG
# 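Further: peak tail current of the secondary pulse compared with the same well before compound.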
# human ether-à-go-go-related gene (hERG) potassium channel, sequence (Q12809 whole entry, looked up): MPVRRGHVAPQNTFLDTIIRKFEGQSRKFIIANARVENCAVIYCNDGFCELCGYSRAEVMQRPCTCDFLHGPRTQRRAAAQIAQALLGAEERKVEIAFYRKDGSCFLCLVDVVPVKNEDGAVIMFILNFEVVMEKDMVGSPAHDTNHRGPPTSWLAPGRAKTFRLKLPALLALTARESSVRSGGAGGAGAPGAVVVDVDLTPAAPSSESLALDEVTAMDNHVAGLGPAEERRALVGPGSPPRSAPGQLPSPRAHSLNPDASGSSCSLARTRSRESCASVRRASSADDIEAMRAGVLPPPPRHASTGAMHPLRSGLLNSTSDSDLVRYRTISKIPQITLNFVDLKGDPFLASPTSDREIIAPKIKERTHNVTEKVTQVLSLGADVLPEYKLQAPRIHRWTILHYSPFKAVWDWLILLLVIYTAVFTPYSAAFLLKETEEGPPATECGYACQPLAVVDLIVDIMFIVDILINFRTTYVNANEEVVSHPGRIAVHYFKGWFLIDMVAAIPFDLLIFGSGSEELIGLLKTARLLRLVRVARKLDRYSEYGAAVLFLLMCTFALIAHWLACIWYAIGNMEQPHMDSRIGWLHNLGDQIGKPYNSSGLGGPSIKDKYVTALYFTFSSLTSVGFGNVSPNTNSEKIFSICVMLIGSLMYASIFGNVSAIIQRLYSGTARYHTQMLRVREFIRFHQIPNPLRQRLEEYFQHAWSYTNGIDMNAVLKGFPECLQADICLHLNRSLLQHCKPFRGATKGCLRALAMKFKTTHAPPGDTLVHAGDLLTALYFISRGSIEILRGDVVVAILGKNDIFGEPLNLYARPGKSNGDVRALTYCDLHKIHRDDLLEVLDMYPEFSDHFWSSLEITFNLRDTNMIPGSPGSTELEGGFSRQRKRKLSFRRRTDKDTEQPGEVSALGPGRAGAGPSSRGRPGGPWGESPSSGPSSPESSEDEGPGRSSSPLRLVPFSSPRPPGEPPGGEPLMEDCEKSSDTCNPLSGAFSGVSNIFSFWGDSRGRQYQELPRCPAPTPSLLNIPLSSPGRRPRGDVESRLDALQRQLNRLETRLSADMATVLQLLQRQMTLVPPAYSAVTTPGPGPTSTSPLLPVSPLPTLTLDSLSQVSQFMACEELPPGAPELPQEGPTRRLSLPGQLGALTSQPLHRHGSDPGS
row,Structure (SMILES),"hERG current change (%, negative = inhibition) at 10uM"
1,CCN(CC)CCCN=C(C)c1c(O)n(-c2ccccc2)c(=O)[nH]c1=O,-16.6%
2,COc1ccccc1CNCC(=O)Nc1cc(S(=O)(=O)N2CCCCCC2)ccc1Cl,2.93%
3,COc1cc(NC(=O)COc2ccccc2C)ccc1NC(=O)c1ccco1,37.1%
4,CC1(OC(=O)c2ccc(Cl)nc2)C(=O)C=C2C=C(c3ccc(C#N)cc3)OC=C2C1=O (stereo not drawn),-3.07%
5,O=C(/C=C/c1ccc2c(c1)OCO2)NCc1ccc(F)cc1,1.09%
6,N/C(=N\OC(=O)CCCOc1ccccc1)c1ccc(Br)cc1,8.83%
7,COc1ccccc1N1CCN(C(=O)c2sc3ncn(CC(=O)N4CCC(C)CC4)c(=O)c3c2C)CC1,-29.3%
8,Cc1cc(NC(=O)C2CCCN2C(=O)Nc2c(C)cccc2C)ccc1-n1cnnn1 (stereo not drawn),-10.9%
9,COc1cccc(-c2csc(NC(=O)Oc3ccccc3)n2)c1,-7.48%
10,COc1ccc(-c2ccc3c(N)c(C(=O)c4ccc(OC)c(OC)c4)sc3n2)cc1,-0.284%
11,CCCN(c1ccc(OCC)cc1)S(=O)(=O)c1ccc2c(c1)CCN2C(=O)CCC(=O)O,22.3%
12,O=C(COC(=O)Cc1c[nH]c2ccccc12)NC1CCS(=O)(=O)C1 (stereo not drawn),10.1%
13,NS(=O)(=O)c1ccc(NC(=O)Cn2ncc3c2-c2ccccc2OC3)cc1,15.2%
14,Cc1ccc(-c2noc(C3CCCN(C(=O)c4ccccc4Br)C3)n2)o1 (stereo not drawn),-42.6%
15,CC(OC(=O)CC1CC2CCC1C2)C(=O)Nc1ccc(C(N)=O)cc1 (stereo not drawn),-16%
16,COc1ccc2oc(-c3cccc(NC(=O)CSc4ccc(Cl)cc4)c3)nc2c1,3.14%
17,Cc1ccsc1C(=O)C1CCCN(Cc2cnn(C)c2)C1 (stereo not drawn),12%
18,Cn1c(=O)c2cc(S(=O)(=O)NC(C(=O)NCc3cccnc3)c3ccccc3)ccc2n(C)c1=O (stereo not drawn),1.13%
19,CCSc1nnc(NC(=O)c2csc3c2CCCC3)s1,-3.14%
20,CN(C)S(=O)(=O)c1ccc(Cl)c(NC(=O)c2ccncc2)c1,-32%
21,Cc1c(-c2cc(C(=O)O)on2)cnn1C,25.6%
22,COc1ccc(OC)c(S(=O)(=O)Nc2c(C)cccc2C)c1,10.8%
23,COC(=O)CSc1nn(-c2ccc(F)cc2)c(=S)s1,-2.71%

row,Structure (SMILES),"hERG current change (%, negative = inhibition) at 10uM"
1,CS(=O)(=O)n1nc(OC(=O)c2cccs2)cc1N,15.1%
2,CC(OC(=O)c1ncc(Cl)c(Cl)c1Cl)C(=O)NC1(C#N)CCCCC1 (stereo not drawn),8.35%
3,O=C(N1CCOCC1)N(Cc1ccccc1)c1ccccn1,-4.16%
4,CC(C)OC(=O)NCCOC(=O)Nc1ccc(Cl)cc1,54.9%
5,CCc1nnc(NCC(=O)N2CCc3ccccc32)s1,-7.75%
6,COc1ccc(NC(=O)c2cccnc2)c(OC)c1,0.833%
7,Cc1nc2ccccc2n1CCc1nc2c3ccccc3nc(SCC#N)n2n1,-20.5%
8,COc1ccc(NC(=O)c2ccco2)cc1NC(=O)c1cc2ccccc2o1,3.33%
9,O=C(Nc1cc2c(cc1Br)OCCO2)c1cccs1,23.3%
10,O=C(CCCO)N/N=C/c1cc(Br)ccc1O,-18.1%
11,Cc1cccc(OCC(=O)Nc2nnc(S(=O)(=O)N3CCCCCC3)s2)c1,22.2%
12,CCOC(=O)n1c(=O)oc2ccc(Cl)cc21,-0.929%
13,CC1CN(Cc2c(O)ccc3c(=O)c(-c4ccccc4Cl)coc23)CC(C)O1 (stereo not drawn),-10.3%
14,O=C(c1cccc(C(F)(F)F)c1)C1CCCN(Cc2cccc(OCCO)c2)C1 (stereo not drawn),-47.4%
15,COc1ccc(-c2cn[nH]c2C)cc1OC,17.7%
16,Cc1cccc(Nc2cc(=O)[nH]c(=O)[nH]2)c1C,10.4%
17,Cc1ccccc1CC(=O)N1CCCC1,-2.77%
18,COC(=O)Cc1ccc(N(Cc2ccccc2F)S(=O)(=O)c2ccc(C)cc2)cc1,-4.8%
19,O=C(NC1CCCCC1)N1CCSC1=Nc1ccccc1,-5.04%
20,CC1CCc2sc(C(=O)NC3CCCCC3)cc2C1 (stereo not drawn),-5.4%
21,COC(=O)c1ccccc1NC(=O)c1noc2c1CC(C(C)(C)C)CC2 (stereo not drawn),17.2%
22,O=C(NNS(=O)(=O)c1ccc([N+](=O)[O-])cc1)c1ccc2ccccc2c1O,1.97%
23,CC(C)c1ccccc1NC(=S)NC(C)c1ccccc1 (stereo not drawn),-9.02%

row,Structure (SMILES),"hERG current change (%, negative = inhibition) at 10uM"
1,CCCC(=O)c1ccc(CP(=O)(OCC)OCC)o1,19.5%
2,COC(=O)c1sccc1NC(=O)Nc1ccc(Cl)c(Cl)c1,14.1%
3,CCOP(=O)(OCC)C(NC(C)=O)C(=O)c1ccccc1 (stereo not drawn),23.1%
4,COc1ccc2cc(C#N)c(SCC(=O)NNC(=O)Cc3ccccc3)nc2c1,16.2%
5,COC(=O)c1ccccc1NC(=O)c1ccccc1N(C)S(C)(=O)=O,7.56%
6,O=C(Nc1ccnc(-c2ccncc2)n1)c1ccc(F)cc1,8.55%
7,O=C(NCc1ccco1)C1CCN(S(=O)(=O)Cc2ccccc2)CC1,-5.29%
8,CCOC(=O)c1csc(NC(=O)CN2CCOCC2)n1,15.8%
9,O=C(NCc1ccncc1)c1cn(-c2ccccc2)nc1-c1cccnc1,-62%
10,COc1ccc(C2CC(=O)N(CCC[NH+](C)CCc3ccc(OC)c(OC)c3)C2)cc1.O=C([O-])C(=O)[O-] (stereo not drawn),-74.7%
11,Cc1onc(-c2c(F)cccc2Cl)c1C(=O)NCc1ccc2c(c1)OCO2,9.77%
12,CCN(CC)C(C(=O)Nc1ccc(C(C)C)cc1)c1ccc2c(c1)OCO2 (stereo not drawn),-9.99%
13,NC(=O)CSc1cn(Cc2cccc(F)c2)c2ccccc12,-26.7%
14,COc1cccc(C(=O)NC(=S)NCc2ccco2)c1,9.98%
15,O=C(O)CN1C(=O)C2C3CC(C2C1=O)C1C(c2ccc(F)cc2)c2sc(=O)[nH]c2SC31 (stereo not drawn),8.69%
16,CC1CCN(CCCCOc2ccc([N+](=O)[O-])cc2)CC1,-74.7%
17,Cc1nnc(N(C)C(=O)c2cccnc2)s1,8.05%
18,COc1ccc(-c2sc(NC(C)=O)nc2-c2ccccc2)cc1,18.8%
19,Cc1nc(C)c(-c2ccc(SCC(=O)Nc3cccc(Cl)c3)nn2)s1,-0.233%
20,COc1cc(OC)cc(C(=O)NCC2CCCN(Cc3ccc(SC)cc3)C2)c1 (stereo not drawn),-72.3%
21,CCOC(=O)C(C)Sc1cnccn1 (stereo not drawn),9.79%
22,COc1ccc2cc(CN(CC3CCCO3)S(=O)(=O)c3ccc(C(C)=O)cc3)c(=O)[nH]c2c1 (stereo not drawn),-11.4%
23,CC(=O)Nc1ccc2c(c1)CN(c1cc(C)ccc1C)CO2,-1.85%

row,Structure (SMILES),"hERG current change (%, negative = inhibition) at 10uM"
1,Cc1cc(C(=O)N2CCC(C(F)(F)F)n3nccc32)on1 (stereo not drawn),8.4%
2,Br.O=S(=O)(c1ccc(-c2csc(Nc3ccc(F)cc3)n2)cc1)N1CCCC1,-1.05%
3,COc1ccc(-c2nc(C#N)c(NCCN(C)C)o2)cc1,-11.2%
4,O=C1CN(C(=O)COC(=O)CCNS(=O)(=O)c2ccc(Cl)cc2)c2ccccc2N1,-27.4%
5,Cc1ccc(CNC(=O)C2CCCN(S(=O)(=O)c3ccc(-n4cnnn4)cc3)C2)cc1 (stereo not drawn),-9.94%
6,CC(=O)c1sc(NC(=O)c2cccs2)nc1C,16%
7,CC1=C(C(=O)Nc2ccc(C(=O)N3CCN(c4cccc(Cl)c4)CC3)cc2)SCCO1,-4.22%
8,CCCOc1ccc(C(CC(=O)O)NC(=O)c2cccs2)cc1 (stereo not drawn),17.9%
9,CCc1nn(CC(=O)NCCN2CCN(C)CC2)c(=O)c2cc3c(OC)cccc3n12,16.1%
10,COC(=O)C1(C)NC(c2ccc(F)cc2)C2C(=O)N(c3ccc(C)cc3)C(=O)C21 (stereo not drawn),7.77%
11,O=C1CCC(=O)N1OCCCOc1ccc2c(c1)CCC2,1.61%
12,Cn1c(=O)c2c(ncn2CC(=O)OCC(=O)Nc2ccc(Cl)cc2)n(C)c1=O,-7.13%
13,O=c1cc(CSc2nnc(C3CC3)n2Cc2ccccc2)nc2sccn12,11.7%
14,O=C(CCS(=O)(=O)c1cccs1)Nc1ccc(C(=O)NCc2ccc(F)cc2)cc1,16.8%
15,CCOc1ccccc1NC(=O)c1ccc(-n2cncn2)nc1,10.7%
16,N#Cc1ccc(CN2CCN(C(=O)c3ccc(S(=O)(=O)NCc4ccco4)cc3)CC2)cc1,-59.8%
17,O=S(=O)(c1cccc(NC(=S)N2CCN(c3ccc(F)cc3)CC2)c1)C(F)F,-0.566%
18,CCCCn1c(=O)c(C(=O)Nc2ccccc2)c(O)c2ccccc21,10.3%
19,Cc1ccc(Cn2nnnc2CN2CCC(n3nnc4ccccc43)CC2)cc1.Cl,-53.9%
20,CCOC(=O)Cc1nnc(NC(=O)CSc2nnc3c(n2)[nH]c2ccccc23)s1,-5.61%
21,Cc1nsc(N)c1C(=O)O,15.9%
